# Experimental data reported in PubChem BioAssay AID2202238 (Ras Initiative Chemistry Research Team, Frederick National …, 2025).
# This is one part of the list. Shown are side measurements of this screen, not its main read-out; they come without a call.
# Molecular target: GTPase KRas (Homo sapiens) (UniProt P01116)
# Assay: Fragment capture on engineered cysteines, share of protein labelled (AID 2202238)
# Set-up: protein at 5 µM with 500 µM competing thiol for 1.5 h
# Conditions: KRAS G12D cysteine mutants, disulfide tethering, MALDI-TOF labeling, stronger effect = higher value, fragment at 500 µM
# [1] = measured here: G75C mutant labeling
# [2] = measured here: H94C mutant labeling
# [3] = measured here: I36C mutant labeling
# [4] = measured here: L120C mutant labeling
# [5] = measured here: M67C mutant labeling
# [6] = measured here: M72C mutant labeling
# [7] = measured here: N86C mutant labeling
# [8] = measured here: P121C mutant labeling
# [9] = measured here: S122C mutant labeling
# [10] = measured here: S136C mutant labeling
# [11] = measured here: G60C mutant labeling
# [12] = measured here: N26C mutant labeling
# Sequence of UniProt P01116 (P01116 whole entry, looked up, the tested form may be a part): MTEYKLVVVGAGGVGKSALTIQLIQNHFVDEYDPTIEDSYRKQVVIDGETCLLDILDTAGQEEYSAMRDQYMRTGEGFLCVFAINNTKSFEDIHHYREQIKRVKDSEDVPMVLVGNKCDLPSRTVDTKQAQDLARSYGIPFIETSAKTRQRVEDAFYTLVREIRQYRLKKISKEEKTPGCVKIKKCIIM
SMILES,percent labeling [1] [%],percent labeling [2] [%],percent labeling [3] [%],percent labeling [4] [%],percent labeling [5] [%],percent labeling [6] [%],percent labeling [7] [%],percent labeling [8] [%],percent labeling [9] [%],percent labeling [10] [%],percent labeling [11] [%],percent labeling [12] [%]
CCc1nnc(NC(=O)C(C)C(C)NC(=O)CCS)s1 (stereo unspecified),14.5,38.5,45,36.6,39.3,30.5,41.4,40.3,33.4,57.4,,
O=C(Cc1cc(Cl)cc2c1OCC2)NCCS,23.2,33.2,27.4,37.9,28.4,42.6,16.7,23.7,21.5,36.4,46.8,30.4
O=C(NCCS)C1CCCn2cc(C(F)(F)F)nc21 (stereo unspecified),11.4,33.8,32.5,43.3,27,20.6,32,30.7,30.2,37.5,30.5,33.4
O=C(NCCS)C1(C2CCOCC2)CC1(F)F (stereo unspecified),9,26.4,23.1,27.6,23.8,9.8,27.2,26.4,27.5,30.8,20.2,29.4
CCc1nc(-c2ccc(C(=O)NCCS)cc2)n[nH]1,16.4,24.4,19.4,24.4,28,36.1,34.8,20.6,22.6,38.4,27.7,41.9
O=C(CCS)N1CCC(CCN2CCCS2(=O)=O)CC1,15.8,36.2,37.9,32.2,40,24.5,31.2,31.8,38.3,55.9,,
CCn1nccc1[C@@H]1OCC[C@H]1C(=O)NCCS,14.1,34,29.4,31.4,34.5,16,17,38.2,25.3,52,28.9,26.5
O=C(CCS)N1CCn2c(Cc3ccccc3F)nnc2C1,10.4,24.9,37.8,19.5,34.8,16.5,16.3,25.1,26.9,47.8,,
O=C(Cc1ccc(OCc2ccccn2)cc1)NCCS,14.8,29.8,25.9,37.4,37.9,30.7,20.7,27.4,20.8,35.7,41.7,39.7
CC1(C(=O)NCCS)CCCN1C(=O)c1ccccc1 (stereo unspecified),12.3,34.4,26.2,46.1,27.7,24,29.2,31.1,33,44.2,32.8,41.7
N#Cc1nc(-c2ccco2)oc1N1CCC(C(=O)NCCS)CC1,10.8,14,14.5,11.7,15.2,15.3,8.2,12.5,8.1,14.1,22.2,24.8
O=C(NCCS)c1nccnc1-c1nc2ccccc2s1,16.3,31.4,19.9,23.7,24.1,47.3,14.5,20.4,13.1,30.1,52.1,32.4
Cc1cc(C2(C(=O)NCCS)CCOCC2)on1,11.5,26.3,21.7,36.4,29.2,18.1,26.5,28.2,28,48,23.3,31.6
O=C(NCCS)C1CCN(c2ccccc2F)C1 (stereo unspecified),10.6,20,12.5,29.4,32.4,25,6.8,18.2,15.3,27.9,34.5,29.4
Cn1ccc(C2CCN(C(=O)CCS)CC2)n1,15,29,39.7,28.5,35.3,24.1,18.1,32.3,38.9,55.1,,
O=C(NCCS)c1cnoc1-c1cccs1,9.3,13.4,7.5,44.7,14.7,37.6,6.7,26.2,33.3,24.4,34.3,25.3
O=C(CCCc1ccc2c(c1)CC(=O)N2)NCCS,13.1,27.3,18.3,28.7,20.2,28.3,17.1,21.4,18.9,26.1,44.4,26.8
O=C(CCS)NCc1nc(-c2ccc(F)cc2)n[nH]1,21.1,32.9,37.6,47.6,49.2,37.3,20,35.8,32.2,47.6,,
O=C(CCS)NCc1nc(C(F)(F)F)n2c1CCCC2,11.8,35.6,35,40.6,34.8,30,24.3,32.6,33.9,56.9,,
O=C(NCCS)c1ccc(Oc2cc(Cl)ccc2Cl)cc1,16.6,17.4,16,17.7,19.1,37.6,9.9,15.4,4.5,14.5,36.6,27.4
CN(C)C1CC2(CC(NC(=O)CCS)C2)C1 (stereo unspecified),11.9,35.4,49.8,26.5,47,20.4,19.9,38.3,32.5,56.4,,
O=C(NCCS)C(c1ccccc1)N1CCc2ccccc21 (stereo unspecified),3.2,5.6,4.5,11.5,10.1,0,5.7,9.3,2.3,6.8,18.6,8.7
Cc1c(CN(CC(F)F)C(=O)CCS)cnn1C,15.4,36.3,37.7,28.6,45.3,31,35,30.5,38.5,58.2,,

SMILES,percent labeling [1] [%],percent labeling [2] [%],percent labeling [3] [%],percent labeling [4] [%],percent labeling [5] [%],percent labeling [6] [%],percent labeling [7] [%],percent labeling [8] [%],percent labeling [9] [%],percent labeling [10] [%],percent labeling [11] [%],percent labeling [12] [%]
O=C(NC1(C(=O)NCCS)CCCC1)c1n[nH]c2ccccc12,9.8,25.4,16.7,34.3,53.5,18.4,23.2,16,13.9,23.9,45.8,29.6
Cc1nc(CN2CCC(C(=O)NCCS)CC2)cs1,13.8,38.4,36.7,40.1,41,19.4,30.7,32.5,30.3,49.2,36,42.8
CCOc1cc2c(c3[nH]c(C(=O)NCCS)cc13)OC(C)C2 (stereo unspecified),5.5,8.9,9.2,9.9,7.7,12.6,0,9.2,5.9,8.3,10.5,18.4
COC(=O)C1(C2=CCN(C(=O)CCS)CC2)CC1,15.2,24.8,26.8,25.7,29.7,33.7,19.7,28.2,25.4,53.8,,
NC(=O)c1ccc(N2CCN(C(=O)CCS)CC2)nc1,16.7,34.8,46.5,31.9,46.6,33.5,31.2,33.9,31.8,58.7,,
O=C(NCCS)c1cc2cccc(Cl)c2o1,19.4,16.6,8.2,11.1,10.9,30.3,7.5,13.4,9.6,17,24.1,28.2
CC1(C)C(=O)Nc2cc(C(=O)NCCS)ccc21,27.8,37,29,41.6,35.5,64.2,31.3,29.6,33.4,55.4,39.2,49.3
Cc1nc2cc(C(=O)NCCS)ccc2n1Cc1ccsc1,16.4,18.6,9.5,14.2,22.2,32,15.8,10.6,10,18.2,26.9,40.6
O=C(Cc1ccccc1Br)NCCS,17.7,35.1,25.1,38.5,31.9,47.8,35.2,25.5,22.3,36.9,59.7,38.5
O=C(NCCS)C1CCc2nc[nH]c2C1 (stereo unspecified),26.9,39.8,32.9,33.5,41,22.8,37.3,31.9,36.2,48.4,39.7,39.1
O=C(CCS)NCCc1noc(COc2ccc(Cl)cc2)n1,8.9,46.1,20.4,18.8,30.8,32.4,19.7,16.7,13.6,40.8,,
O=C(NCCS)c1cccn1CCN1CCOCC1,15.4,44.2,24.4,33.5,31.9,23.4,26,32.9,31.8,43.2,32,41.8
O=C(NC(Cc1ccccc1)C(=O)NCCS)c1ccccc1 (stereo unspecified),8.8,17,15.5,20.7,19,32.9,13.3,16.3,13.6,23.2,31.3,29
CN(C(=O)CNC(=O)CCS)C1CCCCC1,11.4,22.9,30.3,36.8,21.9,20.8,18.9,31.3,36.4,50.3,,
O=C(CCS)NCC12COCCN1C(=O)COC2 (stereo unspecified),8.8,27.8,33.6,27.6,32.1,8.4,18.3,33.3,30.4,41.1,,
CN1CCN(c2nccnc2CNC(=O)CCS)CC1=O,5.3,18.7,25.1,20.3,22.4,11.9,17.6,18.7,19.5,35.8,,
COc1ccccc1Cc1noc(C2CCN(C(=O)CCS)CC2)n1,15.7,19.4,35.4,16.5,30,20,16.2,16.2,22.2,40.9,,
O=C(NCCS)[C@H]1CCCN1C(=O)c1ccccc1,11.3,33.3,24.1,38.3,31.4,26.5,28.1,31.8,34.2,44,37,36.4
Cc1cnc(C2CCN(C(=O)CCS)CC2)s1,19,35.3,40.9,36.8,42.4,35.7,31.4,35.9,37.5,59.2,,
CS(=O)(=O)c1cccc(C(NC(=O)CCS)c2ccc(F)cc2F)c1 (stereo unspecified),11.2,23,28.8,18.6,20.9,19.4,11.7,22.3,17.5,43.2,,
O=C(CC1CN(Cc2ccccc2)CCO1)NCCS (stereo unspecified),17,39,29.4,50.6,46.4,22.5,28.8,37.2,32.6,54.5,39.8,43.3
O=C(COc1c(Cl)cccc1Cl)NCCS,30,28.2,16.7,26.7,24.2,48.5,21.3,31.2,17.9,30.5,43.7,31.7
Cc1sc2nc(CN3CCN(C(=O)CCS)CC3)[nH]c(=O)c2c1C,7.1,14.9,23.3,7.4,26.4,21.1,7.1,12.3,9.1,37.8,,
